Data taken from ChEMBL document CHEMBL4888484, “Replenishing the malaria drug discovery pipeline: Screening and hit evaluation of the MMV Hit Generation Library 1 (HGL1) against asexual blood stage Plasmodium falciparum ,using a nano luciferase reporter read-out” (2022).
Among all 150,000 compounds or so, about 540 (0.36%) showed an effect of 50% or more. The list shows a part of the results.

tested on: Plasmodium falciparum; test: Primary screen in NF54 nanoGlo assay, in single point, at 2uM, 72h; a lower Z score goes with more inhibition; type: functional, Erythrocyte; conditions: timepoint 72 hour

| SMILES | % Inhibition [%] | Z score |
| --- | --- | --- |
| COc1cc(C(=O)N2CCn3cncc3C2)ccn1 | -11 | 1.43 |
| Cc1ccc(CC(=O)N[C@H](CO)CC(C)C)cc1O | -12 | 1.67 |
| COc1ccccc1C(=O)Nc1c(C(=O)N2CCCCCC2)oc2ccccc12 | -7 | 0.68 |
| Cc1ncc([C@H](C)NCc2cc3c(cc2OC(F)F)OCO3)s1 | -6 | 0.8 |
| Cc1ccc(-c2cc3c(N4CCN(Cc5ccccc5)CC4)nccn3n2)cc1C | -10 | 1.71 |
| CCOCCCNC(=O)CCC(=O)N1C[C@@H]2CCCN2c2ccccc21 | 5 | -0.91 |
| Cc1nc(O)cc(C2CCN(Cc3[nH]nc(C)c3Cl)CC2)n1 | 3 | -0.46 |
| CC(C)C(NC(=O)C(O)c1cnn(C)c1)c1ccc(Cl)cc1F (stereo not drawn) | -8 | 0.83 |
| C[C@H]1c2ccccc2CCN1C(=O)NCc1ncccc1S(C)(=O)=O | -1 | 0.27 |
| Cc1ccc(N2CCN(c3nccn4c(=O)n(CC(=O)NCCCc5ccccc5)nc34)CC2)cc1 | -18 | 1.77 |
| COc1cccc(OC)c1-c1cncc(C(=O)NCC2CC2)c1 | -9 | 1.48 |
| c1cnc(N2CCN(Cc3noc([C@@H]4CCCO4)n3)CC2)nc1 | -6 | 1.22 |
| CC(OCC1CC1)C(=O)NCC(C)S(N)(=O)=O (stereo not drawn) | -15 | 1.54 |
| COc1ccc(S(=O)(=O)N2CCN(S(=O)(=O)c3ccc(OC)cc3)C2)cc1 | 33 | -4.2 |
| CCn1cc(C(=O)N2CCNC(=O)[C@@H]2Cc2ccccc2)c(C)n1 | -10 | 1 |
| O=C(Cc1csc(-c2cccnc2)n1)NCc1cccnc1 | 11 | -1.54 |
| O=C(Nc1ccc2c(c1)OCO2)C1CCN(C(=O)c2oc3ccccc3c2COc2ccccc2)CC1 | -3 | 0.39 |
| Cc1ccn(CCn2ccc(-c3cccc(-c4cnccc4C)c3)n2)n1 | -7 | 0.61 |
| CCCCN(C1CCCCCC1)S(=O)(=O)N1CCC[C@@H]1COC | 3 | -0.54 |
| Cc1c(Cl)cncc1NC(=O)N1CCN2C(=O)OCC[C@H]2C1 | -3 | 0.61 |
| CC(=O)Nc1ccc(NC(=O)c2cn3c(n2)COCC3)cc1 | -10 | 1.56 |
| O=C(CCc1c[nH]c2ccccc12)N1CCN(S(=O)(=O)c2ccc3c(c2)CCCC3)CC1 | 2 | -0.23 |
| COc1cc(NS(=O)(=O)NCc2ccccc2)cc(OC)c1 | 7 | -0.94 |
| COc1ncc(NC(=O)N[C@H]2C[C@@H](CO)C2)c(C)c1Br | -16 | 3.11 |
| CCCc1nc(C)c(CN[C@H](c2ccccc2)C2(CO)CCC2)o1 | -5 | 0.97 |
| CCn1nccc1C(=O)N1CCC[C@H]1c1cc(C(C)C)no1 | -12 | 1.6 |
| C1CC2OC1CC2Nc1nc(C2CC2)no1 (stereo not drawn) | 0 | -0.02 |

| SMILES | % Inhibition [%] | Z score |
| --- | --- | --- |
| COc1ccc2[nH]c(C(=O)Nc3cc(NC(=O)C4CCCC4)ccc3C)c(C)c2c1 | -7 | 1.26 |
| COc1ccc(NS(=O)(=O)c2c(C)noc2C)cn1 | 3 | -0.47 |
| CC1CN(CCNC(C)c2ccc(S(C)(=O)=O)c(F)c2)CCO1 (stereo not drawn) | -2 | 0.21 |
| CN(C)c1ncc(CN2CCC(Cc3ccccc3)CC2)s1 | -4 | 0.5 |
| CCCOc1ccc(C2c3c(-c4ccc(C)cc4)nn(C4CCS(=O)(=O)C4)c3C(=O)N2Cc2ccccc2)cc1 (stereo not drawn) | 1 | -0.07 |
| CN(C[C@H]1CCCCO1)C(=O)c1scc2c1CCCC2 | -16 | 1.72 |
| Clc1ccccc1[C@H]1C[C@@H](c2ccccc2)Nc2nnnn21 | -11 | 1.42 |
| COc1ccccc1N1CCN(C(=O)C2CC3CCC2C3)CC1 (stereo not drawn) | 2 | -0.24 |
| CCO[C@H]1COC[C@@H]1NC(=O)N1CCC(COc2ccc(OC)cc2)CC1 | -2 | 0.33 |
| CN(C)C(=O)NC1CCC(C(F)F)CC1 (stereo not drawn) | -11 | 1.43 |
| CCOc1ccc(NC(=O)CCCc2nc(-c3cc4ccc(C)cc4nc3O)no2)cc1 | -11 | 2.08 |
| Cc1nn(C)c(C)c1CC(=O)N[C@@H](C)c1ccc(Cl)cn1 | -8 | 1.32 |
| Cc1ccc(-c2ccc3nn(CC(=O)Nc4ccc(Br)cc4)c(=O)n3n2)cc1C | -10 | 0.95 |
| Cc1oc(CNC(=O)c2ccc(F)cc2F)nc1C(=O)N1CCC(C)CC1 | -5 | 0.65 |
| Cc1cc(Oc2ccc(NC(=O)c3oc(C)nc3C)cc2)n[nH]1 | 29 | -3.9 |
| Cc1[nH]nc(-c2ccsc2)c1NC(=O)Cc1ccccc1 | -2 | 0.42 |
| CC(NC(=O)C1CC1c1ccccc1)C1CC2CCC1C2 (stereo not drawn) | -10 | 1.17 |
| N#Cc1ccc(CNC(=O)N2CCCCCCC2)cc1 | 6 | -0.8 |
| O=C(CN1C(=O)CCC1=O)N1CCN(Cc2ccoc2)CC1 | 9 | -0.73 |
| CC(C)Nc1cc(NCc2csc(N)n2)ncn1 | -10 | 1.98 |
| Cc1c(Cl)cccc1S(=O)(=O)N1CC[C@H](N2CCc3ccccc3C2)C1 | -10 | 1.89 |
| C[C@@H](Cn1ccnc1)NC(=O)c1ccc2c(c1)OCO2 | -9 | 1.51 |
| c1cncc(CNCC2CC23CCc2ccccc23)c1 (stereo not drawn) | -7 | 0.95 |
| Cn1cc(C(=O)N2CC(F)(F)C[C@H]2COc2ccc3c(c2)CCC3)cn1 | -13 | 2.28 |
| Cc1ncc(C(=O)N(CCOc2ccccc2)C[C@H]2CCCO2)c(C)n1 | -8 | 1.55 |
| CCc1c(C)sc(NC(=O)c2noc3c2C[C@@H](C(C)(C)C)CC3)c1C#N | -7 | 1.36 |
| COc1ccc(N2Cc3nn(CC(=O)N(C)c4ccccc4)c(=O)n3C2=O)cc1 | -10 | 1.26 |
